From US20260193317A1, “COMBINATION THERAPY WITH ACTRIIB RECEPTOR VARIANTS AND GLP-1 AGONISTS” (35PHARMA Inc., priority 2023, published 2026)

T1: BMP-9 (Homo sapiens, UniProt Q9UK05)
T1 sequence (Q9UK05 320-429): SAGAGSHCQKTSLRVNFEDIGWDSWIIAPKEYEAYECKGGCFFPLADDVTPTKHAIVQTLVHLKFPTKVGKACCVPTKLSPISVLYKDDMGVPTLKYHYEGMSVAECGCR

T2: activin A (Homo sapiens, UniProt P08476)
T2 sequence (P08476 311-426): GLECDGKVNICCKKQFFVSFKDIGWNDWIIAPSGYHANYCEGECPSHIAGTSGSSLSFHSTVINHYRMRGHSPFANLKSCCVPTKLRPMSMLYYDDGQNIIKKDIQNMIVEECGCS


Each molecule was assayed against T1, BMP-9 (assay: Small-scale BMP-9 ELISA with CHO supernatants). Details: BMP-9 10 ng/mL.
Format: binding
Protocol: (§1) Small-scale testing of ActRIIB-ECD fusion proteins. Additional investigation of a series of exemplary agents was performed using proteins expressed in CHO cells. Briefly, DNA encoding the ActRIIB-ECD-Fc fusion constructs was transfected in cells seeded in 12-well plates in a final volume of 1 ml. After 7 days, the supernatant was harvested, clarified, and the amount of expressed protein in each well was quantified using standard methods. The potency of each agent for inhibition of activin A, BMP-9 and BMP-10 was determined in three separate assays.
The next day, the plate was washed three times. […] Expressed proteins in the supernatants were diluted 1 in 2 in assay diluent (0.5% BSA, 0.05% tween-20 in PBS) and 100 μl was added to the 96-well plate in technical duplicates. After a 1.5-hour incubation at RT, the plate was washed three times. […] In this assay, a loss of signal indicates less binding of the exemplary agent to BMP-9. Results are expressed as a % of the signal obtained with wild-type ActRIIB-Fc (P75).

Molecule | BMP-9 binding, ELISA signal relative to P75
P1239: hActRIIB L33Y G27M, 14 aa linker, IgG1-DL Fc; SEQ ID 219 (protein) ETRECIYYNANWELERTNQSGLERCEMEQDKRYHCYASWRNSSGTIELVKKGCWLDDFNCYDRQECVATEENPQVYFCCCEGNFCNERFTHLPEAGGPEVTYEPPPTGGGGSGGGGSGG[human IgG1 Fc and a few adjoining residues not spelt out] | very low BMP-9 binding
P1272: hActRIIB L33Y, L55Y, 14 aa linker, IgG1-DL Fc; SEQ ID 226 (protein) ETRECIYYNANWELERTNQSGLERCEGEQDKRYHCYASWRNSSGTIELVKKGCWYDDFNCYDRQECVATEENPQVYFCCCEGNFCNERFTHLPEAGGPEVTYEPPPTGGGGSGGGGSGG[human IgG1 Fc and a few adjoining residues not spelt out] | intermediate binding between P444 and P75
P1232: hActRIIB L33M, 14 aa linker, IgG1-DL Fc; SEQ ID 214 (protein) ETRECIYYNANWELERTNQSGLERCEGEQDKRMHCYASWRNSSGTIELVKKGCWLDDFNCYDRQECVATEENPQVYFCCCEGNFCNERFTHLPEAGGPEVTYEPPPTGGGGSGGGGSGG[human IgG1 Fc and a few adjoining residues not spelt out] | intermediate binding between P444 and P75
P1412: hActRIIB L14N, L33Y, 19 aa linker, IgG1-DL Fc; SEQ ID 251 (protein) ETRECIYYNANWENERTNQSGLERCEGEQDKRYHCYASWRNSSGTIELVKKGCWLDDFNCYDRQECVATEENPQVYFCCCEGNFCNERFTHLPEAGGPEVTYEPPPTGGGGSGGGGSGGGGSGG[human IgG1 Fc and a few adjoining residues not spelt out] | intermediate binding between P444 and P75
P1181: hActRIIB L33Y G27D, 10 aa linker, IgG1-DL Fc; SEQ ID 193 (protein) ETRECIYYNANWELERTNQSGLERCEDEQDKRYHCYASWRNSSGTIELVKKGCWLDDFNCYDRQECVATEENPQVYFCCCEGNFCNERFTHLPEAGGPEVTYEPPPTGGGGSGGG[human IgG1 Fc and a few adjoining residues not spelt out] | very low BMP-9 binding

The molecules below were run against T2, activin A (assay: Small-scale activin A ELISA with CHO supernatants). Details: 1 μg/mL protein, 30 ng/mL activin A, loss of signal = binding.
Protocol: as §1
The next day, the plate was washed three times with buffer (Biolegend #421601). […] Expressed proteins in the supernatants described above were diluted to 2 μg/mL in assay diluent (0.5% BSA, 0.05% tween-20 in PBS), mixed 1:1 with recombinant human activin A (R&D #338-AC, 60 ng/mL, diluted in assay diluent). Complexes were immediately added to the 96-well plate in technical duplicates and incubated for 1 h at RT (concentration of expressed protein and activin A on the plate were 1 μg/mL and 30 ng/mL, respectively). […] In this assay, a loss of signal indicates binding of the exemplary agent to activin A, which prevents activin A binding to the anti-activin A antibody on the plate. Results are expressed as a % of the signal obtained with wild-type ActRIIB-Fc (P75).

activin A binding, ELISA signal relative to P75 | Molecule
comparable binding to activin A | P1237: hActRIIB L33Y G27K, 14 aa linker, IgG1-DL Fc; SEQ ID 217 (protein) ETRECIYYNANWELERTNQSGLERCEKEQDKRYHCYASWRNSSGTIELVKKGCWLDDFNCYDRQECVATEENPQVYFCCCEGNFCNERFTHLPEAGGPEVTYEPPPTGGGGSGGGGSGG[human IgG1 Fc and a few adjoining residues not spelt out]
comparable binding to activin A | P1179: hActRIIB L33Y T69E, 14 aa linker, IgG1-DL Fc; SEQ ID 191 (protein) ETRECIYYNANWELERTNQSGLERCEGEQDKRYHCYASWRNSSGTIELVKKGCWLDDFNCYDRQECVAEEENPQVYFCCCEGNFCNERFTHLPEAGGPEVTYEPPPTGGGGSGGGGSGG[human IgG1 Fc and a few adjoining residues not spelt out]
potent activin A binding | P1271: hActRIIB L33Y, L14S, 14 aa linker, IgG1-DL Fc; SEQ ID 225 (protein) ETRECIYYNANWESERTNQSGLERCEGEQDKRYHCYASWRNSSGTIELVKKGCWLDDFNCYDRQECVATEENPQVYFCCCEGNFCNERFTHLPEAGGPEVTYEPPPTGGGGSGGGGSGG[human IgG1 Fc and a few adjoining residues not spelt out]
potent activin A binding | P1270: hActRIIB L33Y, L14H, 14 aa linker, IgG1-DL Fc; SEQ ID 224 (protein) ETRECIYYNANWEHERTNQSGLERCEGEQDKRYHCYASWRNSSGTIELVKKGCWLDDFNCYDRQECVATEENPQVYFCCCEGNFCNERFTHLPEAGGPEVTYEPPPTGGGGSGGGGSGG[human IgG1 Fc and a few adjoining residues not spelt out]
potent activin A binding | P1410: hActRIIB L14Q, L33Y, 19 aa linker, IgG1-DL Fc; SEQ ID 249 (protein) ETRECIYYNANWEQERTNQSGLERCEGEQDKRYHCYASWRNSSGTIELVKKGCWLDDFNCYDRQECVATEENPQVYFCCCEGNFCNERFTHLPEAGGPEVTYEPPPTGGGGSGGGGSGGGGSGG[human IgG1 Fc and a few adjoining residues not spelt out]
potent activin A binding | P1412: hActRIIB L14N, L33Y, 19 aa linker, IgG1-DL Fc; SEQ ID 251 (protein) ETRECIYYNANWENERTNQSGLERCEGEQDKRYHCYASWRNSSGTIELVKKGCWLDDFNCYDRQECVATEENPQVYFCCCEGNFCNERFTHLPEAGGPEVTYEPPPTGGGGSGGGGSGGGGSGG[human IgG1 Fc and a few adjoining residues not spelt out]
comparable binding to activin A | P1175: hActRIIB L33Y T69Q, 10 aa linker, IgG1-DL Fc; SEQ ID 187 (protein) ETRECIYYNANWELERTNQSGLERCEGEQDKRYHCYASWRNSSGTIELVKKGCWLDDFNCYDRQECVAQEENPQVYFCCCEGNFCNERFTHLPEAGGPEVTYEPPPTGGGGSGGG[human IgG1 Fc and a few adjoining residues not spelt out]
comparable binding to activin A | P1178: hActRIIB L33Y T69E, 10 aa linker, IgG1-DL Fc; SEQ ID 190 (protein) ETRECIYYNANWELERTNQSGLERCEGEQDKRYHCYASWRNSSGTIELVKKGCWLDDFNCYDRQECVAEEENPQVYFCCCEGNFCNERFTHLPEAGGPEVTYEPPPTGGGGSGGG[human IgG1 Fc and a few adjoining residues not spelt out]

Molecule | activin A binding, ELISA signal relative to P75
P1230: hActRIIB L33E, 14 aa linker, IgG1-DL Fc; SEQ ID 212 (protein) ETRECIYYNANWELERTNQSGLERCEGEQDKREHCYASWRNSSGTIELVKKGCWLDDFNCYDRQECVATEENPQVYFCCCEGNFCNERFTHLPEAGGPEVTYEPPPTGGGGSGGGGSGG[human IgG1 Fc and a few adjoining residues not spelt out] | lower binding to activin A relative to P75
P1272: hActRIIB L33Y, L55Y, 14 aa linker, IgG1-DL Fc; SEQ ID 226 (protein) ETRECIYYNANWELERTNQSGLERCEGEQDKRYHCYASWRNSSGTIELVKKGCWYDDFNCYDRQECVATEENPQVYFCCCEGNFCNERFTHLPEAGGPEVTYEPPPTGGGGSGGGGSGG[human IgG1 Fc and a few adjoining residues not spelt out] | lower binding to activin A relative to P75
P777: hActRIIB L33Y, 3 aa linker, IgG1-DL Fc; SEQ ID 180 (protein) ETRECIYYNANWELERTNQSGLERCEGEQDKRYHCYASWRNSSGTIELVKKGCWLDDFNCYDRQECVATEENPQVYFCCCEGNFCNERFTHLPEAGGPEVTYEPPPTG[human IgG1 Fc and a few adjoining residues not spelt out] | lower binding to activin A relative to P75
P1177: hActRIIB L33Y T69E, 3 aa linker, IgG1-DL Fc; SEQ ID 189 (protein) ETRECIYYNANWELERTNQSGLERCEGEQDKRYHCYASWRNSSGTIELVKKGCWLDDFNCYDRQECVAEEENPQVYFCCCEGNFCNERFTHLPEAGGPEVTYEPPPTG[human IgG1 Fc and a few adjoining residues not spelt out] | lower binding to activin A relative to P75
P1174: hActRIIB L33Y T69Q, 3 aa linker, IgG1-DL Fc; SEQ ID 186 (protein) ETRECIYYNANWELERTNQSGLERCEGEQDKRYHCYASWRNSSGTIELVKKGCWLDDFNCYDRQECVAQEENPQVYFCCCEGNFCNERFTHLPEAGGPEVTYEPPPTG[human IgG1 Fc and a few adjoining residues not spelt out] | lower binding to activin A relative to P75
